Source: the RNAGym collection of RNA variant scans (doi:10.1073/pnas.2313332121)
This sample is rich in variants without activity.

B1: TPR 5TU (parent)
chain: GGAUCUUCUCGAUCUAACAAAAAAGACAAAUCUGCCACAAAGCUUGAGAGCAUCUUCGGAUGCAGAGGCGGCAGCCUUCGGUGGCGCGAUAGCGCCAACGUUCUCAACUAUGACACGCAAAACGCGUGCUCCGUUGAAUGGAGUUUAUCAUG

Variants of: B1
Assay: polymerase ribozyme fitness, log enrichment relative to wild type (log ratio); higher = more active; in vitro selection for triplet polymerase activity
Procedure, shortened: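 For each subunit of a heterodimeric triplet polymerase ribozyme, a mutant library was built by PCR and transcribed, then taken through a single in vitro selection round in triplicate. Selection involved annealing to a biotinylated primer, the partner subunit and triplets, incubation frozen at −7 °C, gel excision of extended constructs, capture on streptavidin beads and RT-PCR. Genotypes were retained after Illumina sequencing of inputs and outputs only with ≥10 input reads and ≥1 read in each output. Fitness is defined as the logarithm of a genotype's enrichment relative to wild-type enrichment, using inverse-variance-weighted averages across replicates, with the logarithm taken to base 2.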

Point of comparison: A26G A30C G59A G74A G84U, “polymerase ribozyme fitness (log ratio)” value -3.99. Against it:
- A26C U56C A66C G84C C99U C131U A137U — lower, ≤ -4.2
- A26C U61A A64U C85A A110C G124A G136A G140U — lower, ≤ -4.2
- A26C U78C C105A A115G U134A — lower, ≤ -4.2
- A26C U101G G133C U148C G152A — lower, ≤ -4.2
- A26G A28G U44A U61C — lower, ≤ -4.2
- A26G A28U G42C G59C C96G C105G C116U — within 0.2 log units, -4.04
- A26G A29C U61A U148G — lower, ≤ -4.2
- A26G A29U U82C C99U G100C U104A G117C — lower, ≤ -4.2
- A26G A30G A52U C87U A89G U102A U139C — lower, ≤ -4.2
- A26G A30G U45A U77G — lower, ≤ -4.2
- A26G A37C C38U G59A C87U C99U C118A A121G G136A — lower, ≤ -4.2
- A26G A37G A40G G58U G65U G74C G88C U101C U151A — lower, ≤ -4.2
- A26G A37G A73G C85U C93G — lower, ≤ -4.2
- A26G A40G U55A G92A C123G C125U G126A U127C — lower, ≤ -4.2
- A26G A41G A47U C132U A142U — lower, ≤ -4.2
- A26G A47G A91U C95G C99G A106C — lower, ≤ -4.2
- A26G A47G U55G G140C — lower, ≤ -4.2
- A26G A49C C99G U134C — lower, ≤ -4.2
- A26G A49U A147C — lower, ≤ -4.2
- A26G A49U C87A — lower, ≤ -4.2
- A26G A60C U61G A64C G65A U90G C96A A106G A110U A150U — lower, ≤ -4.2
- A26G A60G — higher, -3.55
- A26G A60U C85A C93A U109A — lower, ≤ -4.2
- A26G A66C A73U A89U C125U — lower, ≤ -4.2
- A26G A73U C95U G133U — lower, ≤ -4.2
- A26G A137U — lower, ≤ -4.2
- A26G C27A A73G C87G C125U — lower, ≤ -4.2
- A26G C27A C87G U101G G133C — lower, ≤ -4.2
- A26G C27G C87G C99A — lower, ≤ -4.2
- A26G C35U C95U A106G U148G — lower, ≤ -4.2
- A26G C35U U56A — lower, ≤ -4.2
- A26G C36G A66C G92A A122C — lower, ≤ -4.2
- A26G C51U U55A U61G U134C U144G U146C — lower, ≤ -4.2
- A26G C72U U109A C116A G143A — lower, ≤ -4.2
- A26G C76G C87A C125G U134G — lower, ≤ -4.2
- A26G C93A — lower, ≤ -4.2
- A26G C93G A97G C99U C103A U146C — lower, ≤ -4.2
- A26G G50A G81U C99U — lower, ≤ -4.2
- A26G G50A U61A C99U U130G G141A U145C — lower, ≤ -4.2
- A26G G58A C105G G117C U127G — lower, ≤ -4.2
- A26G G58C G59A A66G A91C C103G C105A — lower, ≤ -4.2
- A26G G62C U77G C96U C118U — lower, ≤ -4.2
- A26G G65C C72U A120G — lower, ≤ -4.2
- A26G G70U C96A C129U — lower, ≤ -4.2
- A26G G81A A97U — lower, ≤ -4.2
- A26G G83A G88A G94U C149G — lower, -4.19
- A26G G83C C103A C116U — lower, ≤ -4.2
- A26G G83U G86A A98U G141U — lower, ≤ -4.2
- A26G G140A G143A — lower, ≤ -4.2
- A26G U31A G48A A60C C76G A107C A119U — lower, ≤ -4.2
- A26G U31G U55A G83A C95U — lower, ≤ -4.2
- A26G U44A C57A G83A A97U C118G — lower, ≤ -4.2
- A26G U44A G71A G86C — lower, ≤ -4.2
- A26G U44G A47C A49C C72G C76G A91C C103G C105G — lower, ≤ -4.2
- A26G U45A U53A C85A C96U G100U U102A C116U A150G — lower, ≤ -4.2
- A26G U55A U56C C69U C87A G126A C129U — lower, ≤ -4.2
- A26G U55A U82G A89U U90G A106G U139G — lower, ≤ -4.2
- A26G U55G C87A A115U C118U C149G — lower, ≤ -4.2
- A26U A28U U56A G84C G88C A89G A106C G136U C149G — lower, ≤ -4.2
- A26U A29G A91C G136C U145G — lower, ≤ -4.2
- A26U A29G C36G C51U — lower, ≤ -4.2
- A26U A29U A52U G74C C118G — lower, ≤ -4.2
- A26U A29U C76U A97U — lower, ≤ -4.2
- A26U A30U C35A G81C C87G A91G G143C — lower, ≤ -4.2
- A26U A30U C93G C116A U134A — lower, ≤ -4.2
- A26U A30U G48A — lower, ≤ -4.2
- A26U A30U G86A C87U C93U G100U U109C C149U — lower, ≤ -4.2
- A26U A39C C85U G86U G141C — lower, ≤ -4.2
- A26U A39G A49C U77G A89U A147C — lower, ≤ -4.2
- A26U A39G G50C C57G C85U A89G — lower, ≤ -4.2
- A26U A39U A89C G92U U109G A110U C149A — lower, ≤ -4.2
- A26U A39U G71C C95G G143A U144C — lower, ≤ -4.2
- A26U A40C U134G — lower, ≤ -4.2
- A26U A40G A41C A49G C51U A52C U90A G92A C95U A97C C118A A137G U151C — lower, ≤ -4.2
- A26U A40G C87G G94C — lower, ≤ -4.2
- A26U A41C C72U C96U C108A C123U — lower, ≤ -4.2
- A26U A41C G86U — lower, ≤ -4.2
- A26U A41C U53A C96A U101G U109C — lower, ≤ -4.2
- A26U A41G A60C G94C C116U G124A — lower, ≤ -4.2
- A26U A41G U53A U55A A91U U148G — lower, ≤ -4.2
- A26U A41U G70C C116A U139A — lower, ≤ -4.2
- A26U A47C A49G G68C G94C G124A — lower, ≤ -4.2
- A26U A47C A52U A66C G67A C85A — lower, ≤ -4.2
